# PubChem BioAssay AID1461 (National Center for Advancing Translational Sciences (NCATS), 2008)
# Screen size: about 220,000 compounds; about 2,300 (1%) were called active. The shares of active, inactive and inconclusive entries below differ from those in the screen. Calls follow the shape of the dose curve; as a rule, active = well fitted inhibition curve with a large enough effect; inconclusive = small, poorly fitted or top-dose-only effect, or effect the other way; inactive = no such curve, though single readings can be large or run the other way. Potencies of inconclusive entries are left out as doubtful fits.
# Biological target: Neuropeptide S receptor (Homo sapiens) (UniProt Q6W5P4)
# Assay: qHTS Assay for Antagonists of the Neuropeptide S Receptor: cAMP Signal Transduction; also: nearly all actives have a fitted effect of over 50% in size
# Settings: CHO-NPSR cells, cAMP TR-FRET, antagonist mode; activity change, negative = inhibition: at 38.3 µM (top of the series) unless noted
# % is scaled to controls: 0 for no effect and ±100 for the full control effect; potency is read from the fitted curve at half-maximal effect; tags tell the direction and shape of the fitted curve.
# Sequence of UniProt Q6W5P4 (Q6W5P4 whole entry, looked up): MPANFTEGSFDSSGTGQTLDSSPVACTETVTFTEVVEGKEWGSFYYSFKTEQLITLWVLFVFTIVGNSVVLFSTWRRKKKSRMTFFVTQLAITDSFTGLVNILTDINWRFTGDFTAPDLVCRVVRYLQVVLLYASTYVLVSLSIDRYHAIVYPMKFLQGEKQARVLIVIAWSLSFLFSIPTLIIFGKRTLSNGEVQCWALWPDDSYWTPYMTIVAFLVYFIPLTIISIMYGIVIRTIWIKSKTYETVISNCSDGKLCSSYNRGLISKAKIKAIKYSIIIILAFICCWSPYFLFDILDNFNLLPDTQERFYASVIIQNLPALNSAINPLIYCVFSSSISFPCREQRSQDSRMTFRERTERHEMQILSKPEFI
SMILES,Potency,"activity change, negative = inhibition"
Cc1ccc(Cl)cc1N(Cc1ccc(C(=O)NCc2cccnc2)cc1)S(=O)(=O)c1ccccc1,"inconclusive [inhibitor, partial curve]",–
Cc1nc(N2CCCCC2)sc1C(=O)c1ccc(Cl)c([N+](=O)[O-])c1,"inconclusive [inhibitor, single point]",–
CC1=CSC2=NC(=O)/C(=C\c3cccn3-c3ccc([N+](=O)[O-])cc3)C(=N)N12,–,inactive: -7.82%
Cc1cc(=S)c2ccccc2[nH]1,–,inactive: -26.9%
O=C(/C=C/c1ccc([N+](=O)[O-])cc1)N1CCN(c2ccccc2F)CC1,–,inactive: 4.36%
O=C1C2C3C=CC(C4CC34)C2C(=O)N1c1ccc2c(c1)OCO2 (stereo not drawn),–,inactive: 20.7%
CC(Sc1nc(-c2ccccc2)cc(C(F)(F)F)n1)C(=O)N1CCCCC1 (stereo not drawn),"inconclusive [inhibitor, partial curve]",–
COc1ccc(-c2cc(N)n(S(=O)(=O)c3c(F)c(F)c(F)c(F)c3F)n2)cc1OC,"inconclusive [inhibitor, partial curve]",–
O=C(NCc1cccs1)c1cnc2ccccn2c1=O,–,inactive: -9.23% [at 46.1 µM]
CC(C)Nc1ncnc2c1nnn2Cc1ccccc1,"inconclusive [inhibitor, partial curve, poor fit]",–
COc1ccc(C2c3sc(=O)[nH]c3SC3C4CCC(C4)C23)cc1 (stereo not drawn),–,inactive: -14.8% [at 46.1 µM]
Cc1ccccc1NC(=O)C(=O)NC(C)CCc1ccccc1 (stereo not drawn),–,inactive: -4.39%
O=C(c1cc2ccccc2o1)N(C1CC1)C1(C(=O)Nc2ccccc2)CCCC1,"inconclusive [inhibitor, single point]",–
O=C(Oc1ccc2c(-c3ccccc3)cc(=O)oc2c1)c1cccs1,–,inactive: -0.875%
C=CCc1c(C)c(C#N)c2nc3ccccc3n2c1N1CCCCC1,"inconclusive [activator, single point]",–
CC(C)(S)[C@@H](N)C(=O)O,–,inactive: 3.64%
COc1ccc2ncc(S(=O)(=O)c3ccccc3)c(N3CCC4(CC3)OCCO4)c2c1,–,inactive: -14.5%
C=CCCN(C(CC(C)C)C(=O)OC)S(=O)(=O)c1cc(Br)ccc1Br (stereo not drawn),"inconclusive [inhibitor, single point]",–
NS(=O)(=O)c1ccc(NC(=S)NCCc2ccccc2)cc1,–,inactive: -4.38%
CCC(=O)NNc1ncnc2ccccc12,–,inactive: 16%
O=C(Nc1ccc(-c2nc3ncccc3o2)cc1)c1ccco1,–,inactive: -6.27% [at 46.1 µM]
Cc1cc(C)c2c(c1)/C(=c1/sc3n(c1=O)CN(c1ccccc1)CN=3)C(=O)N2,"inconclusive [inhibitor, single point]",–
O=C(Nc1ccc(OC(F)F)cc1)c1ncc(Cl)c(Cl)c1Cl,–,inactive: -24.2%
